Laboratory results: paper PMC4336329 (PLoS ONE, 2015)
Hit rate of the full screen: of about 310,000 compounds, about 14,000 (4.5%) showed an effect of 50% or more. Effects have a minus sign here. The list shows a part of the results.

Target: human ether-à-go-go-related gene (hERG) potassium channel (human, UniProt Q12809)
Test: primary screen, population patch clamp on CHO cells stably expressing hERG
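Further: peak tail current of the secondary pulse compared with the same well before compound.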

human ether-à-go-go-related gene (hERG) potassium channel, sequence (Q12809 whole entry, looked up): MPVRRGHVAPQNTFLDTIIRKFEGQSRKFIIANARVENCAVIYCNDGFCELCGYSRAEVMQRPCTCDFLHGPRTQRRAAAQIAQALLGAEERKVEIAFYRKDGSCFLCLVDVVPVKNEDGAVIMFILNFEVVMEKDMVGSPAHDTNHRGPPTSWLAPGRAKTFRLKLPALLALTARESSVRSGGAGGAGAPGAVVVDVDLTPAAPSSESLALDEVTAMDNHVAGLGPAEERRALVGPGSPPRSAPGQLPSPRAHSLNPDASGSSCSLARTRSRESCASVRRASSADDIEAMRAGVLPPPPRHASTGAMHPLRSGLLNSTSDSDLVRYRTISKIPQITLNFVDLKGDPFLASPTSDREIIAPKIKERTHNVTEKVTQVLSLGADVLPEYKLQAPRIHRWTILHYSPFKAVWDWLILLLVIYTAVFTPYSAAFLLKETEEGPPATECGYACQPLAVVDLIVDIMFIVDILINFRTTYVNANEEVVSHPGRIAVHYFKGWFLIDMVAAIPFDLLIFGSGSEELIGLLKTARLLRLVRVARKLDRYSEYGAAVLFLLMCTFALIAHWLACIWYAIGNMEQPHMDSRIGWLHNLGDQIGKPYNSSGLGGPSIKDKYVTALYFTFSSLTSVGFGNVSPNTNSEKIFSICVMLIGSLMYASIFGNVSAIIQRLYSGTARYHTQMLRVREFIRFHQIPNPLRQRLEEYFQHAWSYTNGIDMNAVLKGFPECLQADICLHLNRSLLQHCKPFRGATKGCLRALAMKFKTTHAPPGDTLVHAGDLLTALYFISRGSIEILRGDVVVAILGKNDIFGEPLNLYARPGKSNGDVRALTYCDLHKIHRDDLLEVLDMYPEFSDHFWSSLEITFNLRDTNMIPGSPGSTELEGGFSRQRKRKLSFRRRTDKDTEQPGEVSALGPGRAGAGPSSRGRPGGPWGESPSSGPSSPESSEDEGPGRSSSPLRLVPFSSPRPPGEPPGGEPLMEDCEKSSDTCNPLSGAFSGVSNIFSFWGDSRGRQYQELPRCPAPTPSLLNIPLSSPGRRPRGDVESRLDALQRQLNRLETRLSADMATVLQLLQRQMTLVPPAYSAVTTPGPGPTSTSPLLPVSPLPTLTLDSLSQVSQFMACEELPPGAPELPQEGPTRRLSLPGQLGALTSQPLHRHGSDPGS

Compound | hERG current change (%, negative = inhibition) at 10uM
O=C(NC1CC1)c1nc(Cn2ccc([N+](=O)[O-])n2)no1 | 10%
C=CCn1c(SCC(=O)NCCCO)nc2sc3c(c2c1=O)CCC3 | 5.06%
Cc1n[nH]c(C)c1NC(=O)c1cc([N+](=O)[O-])ccc1Cl | 17.5%
CCc1cc2cc(C)ccc2nc1SCC(=O)Nc1cc(C)on1 | -2.05%
COc1ccc(-n2ncc3c(N4CCC(C(N)=O)CC4)ncnc32)cc1 | -11.5%
C=CC[C@]12C[C@@H](OC)C(=O)C=C1O[C@@H](c1ccc(OC)c(OC)c1)[C@H]2C | 14.5%
O=C(Nc1ccc(Cl)cc1[N+](=O)[O-])c1ccc2c(c1)OCCO2 | -4.51%
Cc1nn2c(=O)cc(CSCC(=O)Nc3ccccc3Cl)nc2s1 | 17.3%
CCCCC(=O)Nc1cccc(NC(=S)NC(C)=O)c1 | -9.87%
Cc1ccc(CNc2ccc(CNc3ncn[nH]3)cc2)cc1 | 4.9%
COc1ccccc1NC(=O)CCSc1nc(C)cc(C)n1 | 16.4%
O=C1OC(c2ccccc2)=C/C1=C/N1CCOCC1 | 2.28%
O=C(Nc1ccc2c(c1)OCCO2)c1ccoc1 | 7.01%
CN1CCN(/C=C(\C#N)S(=O)(=O)c2ccc(Cl)cc2)CC1 | -0.995%
O=C(CCl)Nc1cccn2ncnc12 | 20.2%
COC(=O)Cn1nc(-c2ccccc2)c2ccccc2c1=O | 5.88%
Cc1c(Nc2ccc(C=O)cc2)c(=O)n(-c2ccccc2)n1C | -2.75%
CC(=O)c1ccc(NC(=O)N2C3CCC2CC(O)(c2cccnc2)C3)cc1 (stereo not drawn) | 2.75%
COc1cc(CN2CCNC(=O)C2CC(=O)NCc2csc(C(C)C)n2)cc(OC)c1 (stereo not drawn) | 6.27%
Cc1ccc(OC(=O)c2cc(=O)c3ccccc3o2)cc1 | 11.7%
Nc1ccn(CC(=O)NCCc2ccccn2)c(=O)n1 | 15%
COc1ccc(OC)c(C(=O)NC(CC(N)=O)c2ccc(NCc3ccccn3)c([N+](=O)[O-])c2)c1 (stereo not drawn) | -13%
Cn1c(N2C(=O)CC(Cc3ccccc3)C2=O)nc2ccccc21 (stereo not drawn) | -17.6%

Compound | hERG current change (%, negative = inhibition) at 10uM
CN(C(=O)CSc1nnc(CN2CCCC2)n1Cc1ccccc1)c1ccccc1 | -17.1%
CNC(=O)c1ccc(NC(=O)CC2SC(N3CCCC3)=NC2=O)cc1 (stereo not drawn) | -4.89%
Cc1ccc(C)c(NC(=O)CCC(=O)NNC(=S)Nc2ccccc2)c1 | 13.9%
COc1ccccc1NC(=O)CCn1c(=S)oc2ccccc21 | 14.3%
O=C(O)c1ccccc1-c1nc2ccccc2c(=O)n1O | 14.9%
COc1ccc(/C=N/NC(=O)c2cc3c(ccc4ccccc43)o2)cc1OC | 2.27%
COCCCNS(=O)(=O)c1ccc(S(=O)(=O)N2CCCC2)cc1 | -1.15%
CC(=O)Nc1ccccc1C(=O)C(=O)Nc1ccc(F)c(Cl)c1 | 15.6%
COc1ccc(CNS(=O)(=O)CCNC(=O)c2ccc3c(c2)OCO3)cc1 | -25.8%
Cc1sc2ncnc(SCc3ccc(C(=O)O)cc3)c2c1C | 4.78%
CC(c1ccccc1)N1C(=O)c2ccc(C(=O)NCc3cccnc3)cc2C1=O (stereo not drawn) | -18.4%
[Cl-].c1ccc(CNc2cccc[nH+]2)cc1 | 16.6%
CCCCOc1ccc(S(=O)(=O)NCc2csc(C)n2)cc1 | -9.63%
Cc1ccc(NC(=O)c2oc3ccccc3c2C)nc1 | 16%
COCCCNC(=O)c1c(N)n(-c2ccccc2)c2nc3ccccc3nc12 | 1.67%
COc1ccccc1N(C)S(=O)(=O)c1ccc(C(=O)N(CC(N)=O)C(C)C)cc1 | 7.27%
COCCNC(=S)Nc1ccc(Cl)c(Cl)c1 | -0.16%
Cn1nnnc1SCC(=O)Nc1nc(-c2ccc(F)c(F)c2)cs1 | -19.3%
Cc1nc(Nc2ccc(C(=O)O)cc2)sc1-c1ccccc1 | -76.5%
FC(F)Sc1ccc(-n2cc(-c3ccccc3)[n+]3c2CCC3)cc1.[Br-] | -77.9%
Cn1cc(Br)c(NC(=O)/C=C/C(=O)O)n1 | -18.1%
CCOC(=O)c1c(-c2ccccc2)nc2cc(C)ccn12 | -10.5%
COc1ccc(N2CCN(c3nc(Nc4ccc(C)c(F)c4)nc(N4CCCC4)n3)CC2)cc1 | 8.35%

Compound | hERG current change (%, negative = inhibition) at 10uM
COc1ccc(-c2cc(C(=O)NCc3cn(C)nc3C)c3ccccc3n2)cc1OC | 2.61%
Cc1ccc(/C=C/C(=O)O)cc1S(=O)(=O)Nc1ccc2c(c1)OCO2 | 19.7%
Clc1cccc2sc(N3CCOCC3)nc12 | -0.66%
CCOC(=O)CSC1=NC(=O)/C(=C\c2ccc(Cl)cc2)S1 | 13.5%
Cc1ccccc1S(=O)c1ccccc1C(=O)O (stereo not drawn) | 6.01%
Cc1ccc(-c2nnn(CC(=O)N(CC(=O)NC3CCCC3)c3cnc4ccccc4c3)n2)o1 | -12.4%
S=C(NCc1ccc2c(c1)OCO2)NC1CC1 | 15.9%
CC(=O)CCC(=O)N1CCCC(CNC(=O)c2ccc(-c3ccccc3)cc2)C1 (stereo not drawn) | -13.8%
CC(Oc1ccc2c(-c3ccccc3)cc(=O)oc2c1)C(=O)NCCCN1CCOCC1 (stereo not drawn) | -5.18%
Cc1sc2nc(CSCC(=O)Nc3c(Cl)cccc3Cl)[nH]c(=O)c2c1C | 12.7%
O=C(CCN1C(=O)C2CCCCC2C1=O)N1CCN(S(=O)(=O)c2c(F)cccc2F)CC1 (stereo not drawn) | -18.6%
C=CCn1c(SCC(=O)Nc2cc(C)nn2-c2ccccc2)nnc1C1CCCCC1 | -14.1%
COC(=O)c1c(NC(=O)CN2C(=O)C(=O)N(CC(C)C)C2=O)sc(C)c1C | 7.58%
Cc1cc2ccccc2nc1SCC(=O)Nc1nc(-c2ccccc2)cs1 | 1.67%
CC(=O)c1ccc(Nc2cc(C)nc3ccccc23)cc1 | -31.3%
CCOC(=O)N1CCN(C(=O)CSc2nnc(Cn3c(=O)sc4ccccc43)n2C)CC1 | 7.8%
Fc1c(F)c(C(F)(F)F)c(F)c(F)c1N1CCN(c2ccc3nnc(C(F)(F)F)n3n2)CC1 | 1.77%
CCCCc1cc(=O)oc2c(C)c(OCC(=O)N3C[C@H]4C[C@@H](C3)c3cccc(=O)n3C4)ccc12 | -60%
CCOC(=O)c1c(C)nc(C)c(C(=O)OCC)c1-c1ccco1 | 3.58%
COc1ccc(NC(=O)NNC(=O)C(C)Oc2ccc(C(C)C)cc2)c(OC)c1 (stereo not drawn) | -1.84%
Cc1ccc(NC(=O)CC2S/C(=N/N=C/c3ccco3)NC2=O)cc1Cl (stereo not drawn) | 3.04%
Cc1[nH]c(C)c(S(=O)(=O)N(C)Cc2ccccc2)c1C(=O)N1CCCCC1 | -25.5%
CC(C)(C)c1cc[n+](/C(C(=S)Nc2ccccc2F)=C(/[O-])c2ccc3c(c2)OCCO3)cc1 | -20.7%

Compound | hERG current change (%, negative = inhibition) at 10uM
CCNC(=S)N1CCc2cc(OC)c(OC)cc2C1COc1ccc(OC)cc1 (stereo not drawn) | -1.69%
Cc1cc(C)nc(Sc2ncnc3c2oc2ccccc23)n1 | -1.28%
COc1ccc(C2C(C(=O)O)c3ccccc3C(=O)N2C)cc1Br (stereo not drawn) | -10.5%
CNc1nc(N(C)C)nc(N(C)C)n1 | -7.71%
CC1CCC(NC(=O)c2cc(C3CC3)nn2-c2ccccc2)CC1 (stereo not drawn) | -34.9%
CCOc1ccc(/C(O)=C2/C(=O)C(=O)N(c3cc(C)on3)C2c2ccc(C(=O)OC)cc2)cc1 (stereo not drawn) | 11.3%
C=CCNC(=O)c1ccc(OC2CCN(S(=O)(=O)N(C)C)CC2)cc1 | 0.986%
COc1ccc(/C=C/C(=O)c2ccc(Cl)cc2)c(OC)c1 | 7.13%
CC(=O)c1ccc(Oc2cc(-c3ccccc3)nc(-c3ccccc3)n2)cc1 | 10.6%
CCN1CCSc2ccc(C(=O)Nc3ccc(NC(C)=O)cc3)cc21 | 1.22%
O=C1CS/C(=N/N=C/c2ccncc2)N1 | 11.5%
Cc1c(NC(=O)CN2CCN(c3ccccc3)CC2)c(=O)n(-c2ccccc2)n1C | 9.86%
O=C(O)C1CCN(C(=O)c2scc3c2OCCO3)CC1 | 3.83%
Cc1ccccc1OCCC(=O)OCC(=O)NNC(=O)c1cccs1 | -0.575%
Cc1ncc(CN2CCN(Cc3ccccc3)C(CCO)C2)s1 (stereo not drawn) | 1.08%
CCOc1cc(CNCC(C)C)c(Cl)cc1OCC(=O)Nc1ccccc1 | -15.2%
COC(=O)c1ccccc1NC(=O)N1CCCC1 | -11.9%
COc1ccccc1Oc1nc(-c2cccnc2)nc2ccccc12 | 14.8%
Cc1nn(-c2ccccc2)c2sc(C(=O)O)cc12 | 1.3%
COc1ccc(CCNc2ncnc3c2nnn3Cc2ccccc2)cc1 | 13%
COc1ccc(Cn2c(C)ccc2C)cc1 | 3.95%
